About 2,200 (0.71%) of roughly 310,000 compounds showed an effect of 50% or more. The effect is printed as a negative number. Some of the results follow.
target: human ether-à-go-go-related gene (hERG) potassium channel (human, UniProt Q12809); assay: primary screen, population patch clamp on CHO cells stably expressing hERG
Sequence (Q12809 whole entry, looked up): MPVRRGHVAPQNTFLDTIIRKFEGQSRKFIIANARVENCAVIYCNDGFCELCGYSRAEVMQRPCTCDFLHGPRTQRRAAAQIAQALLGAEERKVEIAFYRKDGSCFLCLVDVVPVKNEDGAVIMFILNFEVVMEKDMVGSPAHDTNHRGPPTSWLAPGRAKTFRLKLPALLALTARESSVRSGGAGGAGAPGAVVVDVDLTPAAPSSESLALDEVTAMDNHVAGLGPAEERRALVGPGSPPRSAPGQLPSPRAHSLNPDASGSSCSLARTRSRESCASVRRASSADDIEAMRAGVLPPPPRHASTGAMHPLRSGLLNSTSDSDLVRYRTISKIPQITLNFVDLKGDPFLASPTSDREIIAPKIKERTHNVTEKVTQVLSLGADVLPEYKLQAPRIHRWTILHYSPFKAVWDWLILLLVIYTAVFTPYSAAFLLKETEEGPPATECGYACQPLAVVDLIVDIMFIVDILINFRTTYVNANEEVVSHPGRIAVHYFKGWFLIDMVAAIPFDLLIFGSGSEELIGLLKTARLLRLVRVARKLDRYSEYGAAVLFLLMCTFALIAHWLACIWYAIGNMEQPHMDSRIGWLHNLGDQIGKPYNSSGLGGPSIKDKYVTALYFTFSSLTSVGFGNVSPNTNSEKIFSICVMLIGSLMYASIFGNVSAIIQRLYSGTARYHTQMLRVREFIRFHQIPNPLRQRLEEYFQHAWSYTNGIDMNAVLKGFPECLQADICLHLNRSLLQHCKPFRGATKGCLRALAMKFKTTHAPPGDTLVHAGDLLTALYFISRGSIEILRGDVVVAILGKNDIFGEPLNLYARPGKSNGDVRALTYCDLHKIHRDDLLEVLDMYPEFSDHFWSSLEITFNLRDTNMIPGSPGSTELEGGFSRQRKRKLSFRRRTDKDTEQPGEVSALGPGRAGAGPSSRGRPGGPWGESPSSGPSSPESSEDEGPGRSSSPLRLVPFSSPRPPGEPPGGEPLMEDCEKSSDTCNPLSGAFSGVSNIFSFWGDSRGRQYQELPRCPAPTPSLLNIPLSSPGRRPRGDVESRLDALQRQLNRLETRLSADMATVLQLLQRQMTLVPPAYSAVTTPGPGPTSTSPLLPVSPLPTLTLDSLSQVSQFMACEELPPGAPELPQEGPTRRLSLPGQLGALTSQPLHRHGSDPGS

Compound	hERG current change (%, negative = inhibition) at 1uM
c1ccc(Cc2c[nH]c3ccccc23)cc1	5.76%
COc1ccc(-c2csc(NC(=O)c3cc(C)oc3C)n2)cc1OC	-3.51%
Cc1cc(N2CCOCC2)ccc1/C=C1\NC(=O)N(CC(=O)Nc2ccccc2C)C1=O	11%
Cc1ccc(C)c(OCC(=O)N2CCN(c3ncccn3)CC2)c1	9.23%
CCOc1ccc(NC(=O)CN(C)CC(=O)NC2CCCc3ccccc32)cc1OCC (centres unmarked)	1.05%
Cc1ccc(N2C(=O)/C(=C/c3ccc(CN(CCC#N)S(C)(=O)=O)o3)C(=O)NC2=S)cc1	8.81%
Cc1ccc(NC(=O)C/C(N)=N/OC(=O)Nc2ccc(C)c(Cl)c2)cc1	8.59%
Cc1cccc(CCNc2nc3ccccc3n3nnnc23)c1	10.7%
O=C(N/N=C/c1ccccc1Br)c1ccc(CSc2cccc3cccnc23)cc1	7.71%
Cn1nc(OCC(N)=O)ccc1=O	8.48%
Nc1[nH]c(N=NC(=O)c2ccc(Cl)cc2)c2ccccc12	6.1%
CC1(C)NC(=O)N(CC(O)CN2CCCC2)C1=O (centres unmarked)	7.56%
Cc1noc(C)c1S(=O)(=O)NCc1cccc(Cl)c1	7.55%
CCOc1ccc(NC(=O)C(C)NC(=O)c2ccccc2Cl)cc1S(=O)(=O)N1CCCC1 (centres unmarked)	4.44%
CC(C)Cn1nc(NC(=O)c2ccco2)c2cc3ccccc3nc21	12.3%
CCN(c1ccc(NC(=O)CCNC(=O)c2ccco2)cc1)C(C)C	13.2%
CSc1ccc(/C=C(/NC(=O)c2ccc(C)cc2)C(=O)Nc2cccc(C)c2)cc1	6.52%
Cc1onc(-c2ccccc2)c1C(=O)NC1CCC(C)CC1 (centres unmarked)	9.61%
CCOc1ccc(OCCC(=O)N(CC)CC(=O)NCc2ccc(Cl)cc2)cc1	-46.7%

Compound	hERG current change (%, negative = inhibition) at 1uM
COc1ccc(-n2ncc3c(N4CCc5ccccc54)ncnc32)cc1	6.47%
CN(CCOCCOc1ccc(F)cc1)Cc1ccccc1.O=C(O)C(=O)O	0.338%
C#Cc1ccc([C@@H]2C=C(C(=O)O)O[C@H](OCCCCO)C2)cc1	13.3%
Br.COc1ccc(-c2csc(Nc3ccc(S(=O)(=O)Nc4cc(OC)nc(OC)n4)cc3)n2)cc1	17.4%
CC(=O)C1C2c3ccccc3O[C@@]1(C)N=c1s/c(=C/c3ccoc3)c(=O)n12 (some centres unmarked)	8.27%
N#CC(c1ccncc1)(c1ncc(C(F)(F)F)cc1Cl)N1CCOCC1 (centres unmarked)	6.01%
CCN(CC)C(=O)CSCc1cnn(-c2ccccc2)c1-n1cccc1	-9.24%
COc1ccc(C)cc1S(=O)(=O)N1CCCCCC1	4.71%
COc1cccc(-c2noc(CCC(=O)Nc3cccnc3)n2)c1	2.2%
COC(=O)C1=CN(c2ccc(F)cc2)C=C(C(=O)OC)C1c1cccc([N+](=O)[O-])c1	0.153%
CCOc1ccc2[nH]c3c(NCCOC)ncnc3c2c1	2.44%
CC1CC(C)CN(S(=O)(=O)c2ccc3c(c2)oc(=O)n3CC(=O)NCCCOC(C)C)C1 (centres unmarked)	11.7%
Cc1ccc(Cn2c(N)nc3ccccc32)cc1	8.08%
CN1CCN(Cc2cn(C)c3ccccc23)CC1CCO (centres unmarked)	22.7%
Cc1cc(C)n(CC(O)Cn2c3ccc(Br)cc3c3cc(Br)ccc32)c(=O)n1 (centres unmarked)	17.3%
CCOc1ccccc1N(C)C(=O)C1CCN(S(=O)(=O)c2cccc3nonc23)CC1	-10.3%
CCOC(=O)C(C)Oc1ccc(=O)n(-c2ccccc2)n1 (centres unmarked)	14%
COc1cc2c(C)nc3onc(-c4ccccc4)c3c2cc1OC	10.4%
Br.NCCCSC1=NCCCN1	8.86%

Compound	hERG current change (%, negative = inhibition) at 1uM
COc1nc(OC)nc(N2CCCCCC2)n1	13%
CCOC(=O)N1CCN(C(=O)CN(Cc2ccc(Cl)cc2)S(C)(=O)=O)CC1	0.2%
O=C(CSc1cc([N+](=O)[O-])cc(S(=O)(=O)Cc2ccccc2)c1)NC1CC1	11.7%
Cc1ccc(S(=O)(=O)NC2(C(F)(F)F)NC(=O)N(c3ccccc3F)C2=O)cc1 (centres unmarked)	7.64%
COc1ccc([N+](=O)[O-])cc1NC(=O)CC1SC(=Nc2cccc(C)c2C)N(/N=C/c2cccc(OC)c2OC)C1=O (centres unmarked)	17.8%
CCCC/S(C)=N/S(=O)(=O)c1ccc(C)cc1 (centres unmarked)	-1.98%
CCOc1ccc(N(CC(=O)NN=C2CCCC2)S(C)(=O)=O)cc1	11%
Cc1ccsc1/C=N/Nc1ncc(Cl)cc1Cl	11%
COc1cc(Oc2nc(C(F)(F)F)nc3ccccc23)ccc1C=O	19%
COC(=O)c1cc(Br)c(=O)n(CCc2ccc(F)cc2)c1	-3.04%
O=C(N/N=C/c1ccc[nH]1)c1ccc(COc2cccc3cccnc23)cc1	3.12%
C#CC1(O)CCC2C3CCC4=C/C(=N/OCC(=O)NCC(=O)NC(C(=O)O)C(C)C)CC[C@]4(C)C3CC[C@@]21C (some centres unmarked)	6.19%
Cc1cc(C)cc(NC(=O)CCc2c(C)nn(-c3ccc(N4CCCCC4)nn3)c2C)c1	11.5%
CCn1cc(CCC(=O)NCCc2ccccc2)c2ccccc21	13.4%
NC(=O)CC(NC(=S)NCc1ccccc1)C(=O)O (centres unmarked)	5.58%
O=C(NC(Nc1ccccn1)C(Cl)(Cl)Cl)c1ccccc1 (centres unmarked)	12.5%
Nc1nc(-c2ccco2)c(-c2ccco2)s1	10.8%
COc1ccc(NS(=O)(=O)c2cccc(C(=O)NNC(=O)c3ccc(C)o3)c2)cc1	10.2%

Reference: PMC4336329 (PLoS ONE, 2015)
